Results taken from patent publication US20260274856A1, “COVALENT CEREBLON LIGANDS” (C4 THERAPEUTICS, INC., priority 2023, published 2026).

Molecular target: CRBN(delta 1-40)/DDB1(delta BPB) (Homo sapiens, UniProt Q96SW2)
Test: Covalent labeling of CRBN, intact protein mass spectrometry
Details: 15 μM protein stock, 6 h at room temperature; for % modified (15 μM): 15 μM compound; for % modified (150 μM): 150 μM compound

Structure (SMILES): O=C1CCC(Oc2ccc(C3CCNCC3)c(OS(=O)(=O)F)c2)C(=O)N1 (stereo not drawn) [Compound A-42, 5-((2,6-dioxopiperidin-3-yl)oxy)-2-(piperidin-4-yl)phenyl sulfurofluoridate]
- % modified (15 μM): ++++ (≥20% and <40%= ++++)
- % modified (150 μM): ++++++ (≥60% and <80% = ++++++)

Structure (SMILES): O=C1CCN(c2ccc(C3CCNCC3)c(S(=O)(=O)F)c2)C(=O)N1 [Compound A-45, 5-(2,4-dioxotetrahydropyrimidin-1(2H)-yl)-2-(piperidin-4-yl)benzenesulfonyl fluoride]
- % modified (15 μM): ++++++ (≥60% and <80% = ++++++)
- % modified (150 μM): +++++++ (≥80% = +++++++)

Structure (SMILES): O=C1NC(=O)C2(Nc3ccc(OS(=O)(=O)F)cc3)CC1C2 [Compound A-46, 4-((2,4-dioxo-3-azabicyclo[3.1.1]heptan-1-yl)amino)phenyl sulfurofluoridate]
- % modified (15 μM): + (<5% = +)
- % modified (150 μM): + (<5% = +)

Structure (SMILES): O=C1CCC(NC(=O)c2cccc(OS(=O)(=O)F)c2)C(=O)N1 (stereo not drawn) [Compound A-47, 3-((2,6-dioxopiperidin-3-yl)carbamoyl)phenyl sulfurofluoridate]
- % modified (15 μM): + (<5% = +)
- % modified (150 μM): + (<5% = +)

Structure (SMILES): O=C1CCC(NC(=O)c2cccc(S(=O)(=O)F)c2)C(=O)N1 (stereo not drawn) [Compound A-49, 3-((2,6-dioxopiperidin-3-yl)carbamoyl)benzenesulfonyl fluoride]
- % modified (15 μM): + (<5% = +)
- % modified (150 μM): ++++ (≥20% and <40%= ++++)

Structure (SMILES): Cn1c(=O)n(C2CCC(=O)NC2=O)c2ccc(C3CCNCC3)c(OS(=O)(=O)F)c21 (stereo not drawn) [Compound A-53, 1-(2,6-dioxopiperidin-3-yl)-3-methyl-2-oxo-5-(piperidin-4-yl)-2,3-dihydro-1H-benzo[d]imidazol-4-yl sulfurofluoridate]
- % modified (15 μM): + (<5% = +)
- % modified (150 μM): + (<5% = +)

Structure (SMILES): CN1C(=O)CCC(Nc2ccc(C3CCNCC3)c(OS(=O)(=O)F)c2)C1=O (stereo not drawn) [Compound A-55, 5-((1-methyl-2,6-dioxopiperidin-3-yl)amino)-2-(piperidin-4-yl)phenyl sulfurofluoridate]
- % modified (15 μM): + (<5% = +)
- % modified (150 μM): + (<5% = +)

Structure (SMILES): O=C1CCC(c2noc3c(S(=O)(=O)F)cccc23)C(=O)N1 (stereo not drawn) [Compound A-58, 3-(2,6-dioxopiperidin-3-yl)benzo[d]isoxazole-7-sulfonyl fluoride]
- % modified (15 μM): +++++ (≥40% and <60% = +++++)
- % modified (150 μM): +++++++ (≥80% = +++++++)

Structure (SMILES): O=C1CCC(c2ccc3ccc(S(=O)(=O)F)cc3c2)C(=O)N1 (stereo not drawn) [Compound A-60, 7-(2,6-dioxopiperidin-3-yl)naphthalene-2-sulfonyl fluoride]
- % modified (15 μM): ++++ (≥20% and <40%= ++++)
- % modified (150 μM): +++++++ (≥80% = +++++++)

Structure (SMILES): CN(c1ccc(C2CCNCC2)c(OS(=O)(=O)F)c1)C1CCC(=O)NC1=O (stereo not drawn) [Compound A-61, 5-((2,6-dioxopiperidin-3-yl)(methyl)amino)-2-(piperidin-4-yl)phenyl sulfurofluoridate]
- % modified (15 μM): + (<5% = +)
- % modified (150 μM): ++ (≥5% and <10% = ++)

Structure (SMILES): O=C1CCC(c2noc3c(OS(=O)(=O)F)cccc23)C(=O)N1 (stereo not drawn) [Compound A-62, 3-(2,6-dioxopiperidin-3-yl)benzo[d]isoxazol-7-yl sulfurofluoridate]
- % modified (15 μM): +++++++ (≥80% = +++++++)
- % modified (150 μM): +++++++ (≥80% = +++++++)

Structure (SMILES): CC(C)N=S(=O)(F)c1ccc2c(c1)C(=O)N(C1CCC(=O)NC1=O)C2 (stereo not drawn) [Compound A-63, 3-[6-(S-fluoro-N-isopropyl-sulfonimidoyl)-1-oxo-isoindolin-2-yl]piperidine-2,6-dione]
- % modified (15 μM): + (<5% = +)
- % modified (150 μM): + (<5% = +)

Structure (SMILES): NCCCCn1cc(COc2cc(S(=O)(=O)F)cc3c2CN(C2CCC(=O)NC2=O)C3=O)nn1 (stereo not drawn) [Compound A-64, 7-((1-(4-aminobutyl)-1H-1,2,3-triazol-4-yl)methoxy)-2-(2,6-dioxopiperidin-3-yl)-3-oxoisoindoline-5-sulfonyl fluoride]
- % modified (15 μM): + (<5% = +)
- % modified (150 μM): + (<5% = +)

Structure (SMILES): NCCCCNC(=O)COc1cc(S(=O)(=O)F)cc2c1CN(C1CCC(=O)NC1=O)C2=O (stereo not drawn) [Compound A-65, 7-(2-((4-aminobutyl)amino)-2-oxoethoxy)-2-(2,6-dioxopiperidin-3-yl)-3-oxoisoindoline-5-sulfonyl fluoride]
- % modified (15 μM): + (<5% = +)
- % modified (150 μM): + (<5% = +)

Structure (SMILES): O=C(O)COc1cc(S(=O)(=O)F)cc2c1CN(C1CCC(=O)NC1=O)C2=O (stereo not drawn) [Compound A-66, 2-((2-(2,6-dioxopiperidin-3-yl)-6-(fluorosulfonyl)-1-oxoisoindolin-4-yl)oxy)acetic acid]
- % modified (15 μM): + (<5% = +)
- % modified (150 μM): ++ (≥5% and <10% = ++)
